{"source": "the supplement of paper PMC10126150", "note": "Sequences with one replicate were seen in a single cluster, so their values are uncertain.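 Further: ATP exposure 15 min at 22 °C before imaging.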"}
{"test_system": "ATP", "experiment": "switch fluorescence ratio, 500 uM ATP over buffer (Cy3 cluster intensity, sum of 5 cycles each) (fold (ratio)); higher = stronger signal-on switching upon ATP binding; sequences stand for … in TCGTCGGCAGCGTCAGATGTGTATAAGAGACAGTTTTTTTTTTTTTTTTTTTTTTTTT…TC", "details": "aptamer strand: ATP DNA aptamer (quencher-CACCTGGGGGAGTATTGCGGAGGAAGG + anchor), 100 nM annealed; ATP concentration: 500 uM; one replicate", "in_short": "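Per cluster, summed Cy3 intensity from the target cycles was divided by that from the buffer cycles to give the fluorescence ratio, then averaged per switch-domain sequence. Clusters outside 100-1000 RFU were excluded. The Cy3-labelled switching-strand clusters, on a modified Illumina MiSeq flow-cell, were annealed to 100 nM quencher-labelled ATP aptamer and imaged in selection buffer, then after 15 min with 500 uM ATP at 22 °C, for five cycles with NaOH stripping and re-annealing between them.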"}
{"sequence": "GGAACTCATC", "switch fluorescence ratio": 1.06}
{"sequence": "GGAACTTCTT", "switch fluorescence ratio": 1.04}
{"sequence": "GGAAGAACCC", "switch fluorescence ratio": 1.03}
{"sequence": "GGAAGACGGT", "switch fluorescence ratio": 1}
{"sequence": "GGAAGATCGT", "switch fluorescence ratio": 0.99}
{"sequence": "GGAAGATGAT", "switch fluorescence ratio": 1.04}
{"sequence": "GGAAGCCCGT", "switch fluorescence ratio": 1.02}
{"sequence": "GGAAGCTAGC", "switch fluorescence ratio": 0.959}
{"sequence": "GGAAGCTCTG", "switch fluorescence ratio": 0.994}
{"sequence": "GGAAGGCCAT", "switch fluorescence ratio": 1.07}
{"sequence": "GGAAGGGACC", "switch fluorescence ratio": 0.931}
{"sequence": "GGAATGGTGA", "switch fluorescence ratio": 1.04}
{"sequence": "GGAATTTCAG", "switch fluorescence ratio": 1.04}
{"sequence": "GGACAATACG", "switch fluorescence ratio": 1.15}
{"sequence": "GGACAATGGT", "switch fluorescence ratio": 0.992}
{"sequence": "GGACACAATG", "switch fluorescence ratio": 1.05}
{"sequence": "GGACACTCTT", "switch fluorescence ratio": 1.02}
{"sequence": "GGACAGCTAA", "switch fluorescence ratio": 0.976}
{"sequence": "GGACAGGCAA", "switch fluorescence ratio": 1.2}
{"sequence": "GGACAGGTC", "switch fluorescence ratio": 0.954}
{"sequence": "GGACATAGT", "switch fluorescence ratio": 0.97}
{"sequence": "GGACATGGCC", "switch fluorescence ratio": 1.01}
{"sequence": "GGACCACTAC", "switch fluorescence ratio": 1.38}
{"sequence": "GGACCCGGTG", "switch fluorescence ratio": 1}
{"sequence": "GGACCGCTAG", "switch fluorescence ratio": 1.03}
{"sequence": "GGACCGTCCA", "switch fluorescence ratio": 0.972}
{"sequence": "GGACCTAGCA", "switch fluorescence ratio": 1.08}
{"sequence": "GGACGAGCTA", "switch fluorescence ratio": 1.07}
{"sequence": "GGACGAGGGG", "switch fluorescence ratio": 1.03}
{"sequence": "GGACGCTTGT", "switch fluorescence ratio": 0.969}
{"sequence": "GGACGGCATT", "switch fluorescence ratio": 1.13}
{"sequence": "GGACGTCAAG", "switch fluorescence ratio": 1}
{"sequence": "GGACGTGAAA", "switch fluorescence ratio": 1.01}
{"sequence": "GGACGTTGAC", "switch fluorescence ratio": 1.23}
{"sequence": "GGACTAAGGT", "switch fluorescence ratio": 1}
{"sequence": "GGACTCAGAG", "switch fluorescence ratio": 0.913}
{"sequence": "GGACTCTCAA", "switch fluorescence ratio": 1.07}
{"sequence": "GGACTGCGAA", "switch fluorescence ratio": 1.04}
{"sequence": "GGAGAAGTAG", "switch fluorescence ratio": 1.07}
{"sequence": "GGAGAGGAGC", "switch fluorescence ratio": 1.01}
{"sequence": "GGAGAGTTGG", "switch fluorescence ratio": 0.988}
{"sequence": "GGAGATACTC", "switch fluorescence ratio": 1.09}
{"sequence": "GGAGATTCTG", "switch fluorescence ratio": 1}
{"sequence": "GGAGCACACG", "switch fluorescence ratio": 1.97}
{"sequence": "GGAGCATTAA", "switch fluorescence ratio": 2.79}
{"sequence": "GGAGCATTCA", "switch fluorescence ratio": 1.32}
{"sequence": "GGAGCCAATC", "switch fluorescence ratio": 2.65}
{"sequence": "GGAGCCTATG", "switch fluorescence ratio": 1.02}
{"sequence": "GGAGCCTGCT", "switch fluorescence ratio": 0.99}
{"sequence": "GGAGCGGGAC", "switch fluorescence ratio": 3.82}
{"sequence": "GGAGCTCCGG", "switch fluorescence ratio": 1.03}
{"sequence": "GGAGCTGATG", "switch fluorescence ratio": 1.06}
{"sequence": "GGAGCTGGTT", "switch fluorescence ratio": 1.02}
{"sequence": "GGAGGAAGCA", "switch fluorescence ratio": 2.18}
{"sequence": "GGAGGAAGGA", "switch fluorescence ratio": 1.04}
{"sequence": "GGAGGACCTG", "switch fluorescence ratio": 0.978}
{"sequence": "GGAGGCAAAA", "switch fluorescence ratio": 2.53}
{"sequence": "GGAGGCAGCA", "switch fluorescence ratio": 0.952}
{"sequence": "GGAGGCCGA", "switch fluorescence ratio": 1.06}
{"sequence": "GGAGGTAAAC", "switch fluorescence ratio": 0.97}
{"sequence": "GGAGTAAAAC", "switch fluorescence ratio": 1.17}
{"sequence": "GGAGTAACCA", "switch fluorescence ratio": 0.982}
{"sequence": "GGAGTACCAC", "switch fluorescence ratio": 0.994}
{"sequence": "GGAGTACGAA", "switch fluorescence ratio": 0.993}
{"sequence": "GGAGTAGG", "switch fluorescence ratio": 1.01}
{"sequence": "GGAGTAGGA", "switch fluorescence ratio": 0.992}
{"sequence": "GGAGTCAACG", "switch fluorescence ratio": 0.978}
{"sequence": "GGAGTCCTTT", "switch fluorescence ratio": 1.01}
{"sequence": "GGAGTCGGTA", "switch fluorescence ratio": 0.912}
{"sequence": "GGAGTGACAG", "switch fluorescence ratio": 1.04}
{"sequence": "GGAGTGCACA", "switch fluorescence ratio": 0.96}
{"sequence": "GGAGTGCGCT", "switch fluorescence ratio": 1.02}
{"sequence": "GGAGTGTGCA", "switch fluorescence ratio": 1.05}
{"sequence": "GGAGTTATTA", "switch fluorescence ratio": 1.01}
{"sequence": "GGATAAGACA", "switch fluorescence ratio": 1}
{"sequence": "GGATACCGAC", "switch fluorescence ratio": 1.23}
{"sequence": "GGATAGAAT", "switch fluorescence ratio": 0.942}
{"sequence": "GGATATGC", "switch fluorescence ratio": 1.15}
{"sequence": "GGATATTTCG", "switch fluorescence ratio": 1.01}
{"sequence": "GGATCAGGAG", "switch fluorescence ratio": 1.03}
{"sequence": "GGATCAGGCG", "switch fluorescence ratio": 0.965}
{"sequence": "GGATCATGTA", "switch fluorescence ratio": 0.969}
{"sequence": "GGATCCACGA", "switch fluorescence ratio": 0.993}
{"sequence": "GGATCCAGGT", "switch fluorescence ratio": 1.05}
{"sequence": "GGATCGAGTG", "switch fluorescence ratio": 0.991}
{"sequence": "GGATCGCCGT", "switch fluorescence ratio": 0.94}
{"sequence": "GGATCTTGCC", "switch fluorescence ratio": 1.07}
{"sequence": "GGATGAATGA", "switch fluorescence ratio": 0.99}
{"sequence": "GGATGCCCCT", "switch fluorescence ratio": 0.942}
{"sequence": "GGATGCGGT", "switch fluorescence ratio": 1.02}
{"sequence": "GGATGCTGCC", "switch fluorescence ratio": 1.02}
{"sequence": "GGATGGATCG", "switch fluorescence ratio": 0.987}
{"sequence": "GGATGGTAGA", "switch fluorescence ratio": 1}
{"sequence": "GGATGGTTGT", "switch fluorescence ratio": 1.03}
{"sequence": "GGATGTGGCA", "switch fluorescence ratio": 0.994}
{"sequence": "GGATGTGGTG", "switch fluorescence ratio": 0.989}
{"sequence": "GGATGTTGCT", "switch fluorescence ratio": 0.956}
{"sequence": "GGATTAAGTC", "switch fluorescence ratio": 1}
{"sequence": "GGATTAGGAT", "switch fluorescence ratio": 0.978}
{"sequence": "GGATTCTGGT", "switch fluorescence ratio": 1.15}
